Assay results: PubChem BioAssay AID485281 (National Center for Advancing Translational Sciences (NCATS), 2010)
About 260 (0.074%) of roughly 350,000 compounds were called active. Inconclusive means that the source gave no clear call. Such entries were picked first, then a sample of the others. The call rests on the fitted dose curve; in most records, active means well fitted inhibition curve with a large enough effect; inconclusive means small, poorly fitted or top-dose-only effect; inactive means no such curve, though single readings can be large or run the other way. Potencies of inconclusive entries are doubtful fits and often do not repeat.

Target: Ferritin light chain (Equus caballus) (UniProt P02791)
Sequence of UniProt P02791 (P02791 whole entry, looked up): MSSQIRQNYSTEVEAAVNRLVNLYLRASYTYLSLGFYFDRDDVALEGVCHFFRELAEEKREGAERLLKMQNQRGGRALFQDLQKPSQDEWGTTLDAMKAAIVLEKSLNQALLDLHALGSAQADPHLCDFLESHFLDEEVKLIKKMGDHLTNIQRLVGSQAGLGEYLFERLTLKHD
Assay: qHTS Assay for Identification of Novel General Anesthetics; further: nearly all actives have a fitted effect of over 20% in size
Conditions: apoferritin/1-aminoanthracene competitive binding, fluorescence; series mostly up to 77.5 µM
Summary of the method: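 In PBS, apoferritin at 10 uM is loaded with 1-AMA from a 50% saturated solution. After 10 min of compound exposure at ambient temperature, reduced 535 nm fluorescence indicates probe displacement.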
Potency means the concentration at half of the fitted maximal effect; tags describe the fitted curve by direction and shape.

Row | Compound | Potency
1 | COCc1cc(CN2CCCC(C(=O)Nc3ccc(-c4ccco4)cc3)C2)ccc1OC (stereo not drawn) | inconclusive: 17.8 µM [inhibitor, partial curve]
2 | N/C(=N\OC(=O)COc1ccc(Br)cc1Cl)c1ccccn1 | inconclusive: 25.1 µM [inhibitor, partial curve]
3 | O=C(Cn1nnc(-c2cccc(C(F)(F)F)c2)n1)N1CCCCCC1 | inconclusive: 39.8 µM [inhibitor, partial curve]
4 | CCc1ccc(CN(Cc2ccco2)c2cnc(S(C)(=O)=O)nc2C(=O)Nc2cccc(C)c2)cc1 | inconclusive: 2.82 µM [inhibitor, full curve, poor fit]
5 | Cc1c(Cl)cccc1NC(=O)CCC(=O)N/N=C/c1ccco1 | inconclusive: 10 µM [inhibitor, full curve]
6 | COc1ccc(OC)c(-c2csc(N(C)C(=O)c3ccco3)n2)c1 | inactive
7 | Cc1cc(Nc2ccccc2)nc(NCc2ccccc2)n1 | inconclusive: 31.6 µM [inhibitor, partial curve]
8 | CC(NC(=O)CCl)c1ccc(Cl)c(Cl)c1 (stereo not drawn) | inconclusive: 35.5 µM [inhibitor, partial curve]
9 | COC(=O)C1=CN(CC2CCCO2)C=C(C(=O)OC)C1c1cc(OC)c(OC)c(OC)c1 (stereo not drawn) | inactive
10 | C=C(C)C(=O)Nc1nnc(-c2ccccc2C)s1 | inactive
11 | Cc1cc(Cl)nc(-n2nc(C)cc2C)n1 | inactive
12 | COc1ccc(NC(=O)COC(=O)CCCc2c[nH]c3ccccc23)cc1OC | inconclusive: 17.8 µM [inhibitor, partial curve]
13 | Cc1ccc(-c2cc(-c3ccc(F)cc3)nc(N)c2C#N)o1 | inactive
14 | COc1ccc(CC(=O)OCC(=O)Nc2ncc(Cl)cc2Cl)cc1 | inconclusive: 50.1 µM [inhibitor, single point]
15 | Cc1ccc(C2C(=O)N(C3CCCC3)CC(=O)N2C2CCCCC2)cc1 (stereo not drawn) | inconclusive: 28.2 µM [inhibitor, single point]
16 | NS(=O)(=O)c1ccc(N/N=C/C=C/c2ccccc2[N+](=O)[O-])cc1 | inconclusive: 50.1 µM [inhibitor, single point]
17 | CCN1CCN(CCCNC(=O)c2cnn(-c3ccc(C)cc3C)c2C2CCN(C(=O)OC(C)(C)C)CC2)CC1 | inconclusive: 1 µM [inhibitor, full curve, poor fit]
18 | CC(CCc1ccco1)NC(=O)CCc1nnc2ccc(NCc3ccccc3)nn12 (stereo not drawn) | inconclusive: 31.6 µM [inhibitor, single point]
19 | Cc1ccc(Sc2c([N+](=O)[O-])ncn2C)cc1 | inconclusive: 28.2 µM [inhibitor, single point]
20 | Cn1c(=O)cc(OCCCC(=O)NCCCN2CCN(Cc3ccccc3)CC2)c2ccccc21 | inactive
21 | CCN1CCc2nc3sc(C(=O)Nc4cccc(Cl)c4C)c(N)c3cc2C1 | inconclusive: 56.2 µM [inhibitor, single point]
22 | C=N[C@H](C(=O)N[C@@H]1C(=O)N2[C@@H]1SC(C)(C)[C@@H]2C(=O)O)c1ccccc1 | inactive

Row | Compound | Potency
23 | Cc1ccsc1-c1nc(CN2CCCC2c2ccc(F)cc2)c(C)o1 (stereo not drawn) | inconclusive: 14.1 µM [inhibitor, partial curve]
24 | Nc1cc(CN2C(=O)c3ccccc3C2=O)cc(Cl)c1O | inconclusive: 50.1 µM [inhibitor, single point]
25 | CCOc1ccc(N(C)S(=O)(=O)c2ccc3[nH]cc(C(=O)NCCOC)c(=O)c3c2)cc1 | inconclusive: 39.8 µM [inhibitor, single point]
26 | COc1cccc(N2CCN(c3ncnc4c3cnn4-c3ccc(C)cc3C)CC2)c1 | inactive
27 | Cc1c(-c2ccccc2)oc2c(C(=O)N3CCN(c4ccc([N+](=O)[O-])cc4)CC3)cccc2c1=O | inactive
28 | CCOC(=O)c1cnc(SCC(=O)Nc2nc(C)c(C)s2)nc1N | inconclusive: 28.2 µM [inhibitor, single point]
29 | CCn1c(-c2cc3ccccc3cc2O)n[nH]c1=S | inactive
30 | CSc1nsc(/C=C/Nc2cccc(Cl)c2)c1C#N | inconclusive: 22.4 µM [inhibitor, partial curve]
31 | COc1ccc(C(=O)NC(=S)NCc2cccnc2)cc1Br | inconclusive: 39.8 µM [inhibitor, single point]
32 | O=[N+]([O-])c1ccccc1Oc1ccc(C(F)(F)F)cn1 | inconclusive: 14.1 µM [inhibitor, partial curve]
33 | COc1ccc(NS(=O)(=O)c2cccc(C(=O)N/N=C(\C)c3ccc(-n4ccnc4)cc3)c2)cc1 | inconclusive: 31.6 µM [inhibitor, partial curve]
34 | Cc1cc(C)nc(SCNC(=O)c2ccc(F)cc2)n1 | inactive
35 | COc1cc(NS(=O)(=O)c2ccccc2)ccc1-n1nc(C)cc1C | inconclusive: 20 µM [inhibitor, partial curve]
36 | O=C(NCc1ccc2c(c1)OCO2)NC12CC3CC(CC(C3)C1)C2 | inconclusive: 11.2 µM [inhibitor, partial curve]
37 | CC(C)c1nnc(NC(=O)CCC(=O)NC2CCCCCCC2)s1 | inconclusive: 50.1 µM [inhibitor, partial curve, poor fit]
38 | CSc1nnc2c3c4c(sc3c(=O)n(-c3ccccc3)n12)CC(C)(C)OC4 | inconclusive: 28.2 µM [inhibitor, partial curve]
39 | CCCS(=O)(=O)c1c(S(=O)(=O)CCC)c2c(N)cccn2c1C(=O)c1ccc(F)cc1 | inconclusive: 35.5 µM [inhibitor, single point]
40 | CCOc1ccccc1NC(=O)CN1C(=O)COc2ccc(S(=O)(=O)NC3CCCC3)cc21 | inactive
41 | O=C1NN(c2ccccc2)C(=O)C2C3C=CC(C4CC34)C12 (stereo not drawn) | inconclusive: 14.1 µM [inhibitor, partial curve]
42 | CNc1ccc(S(=O)(=O)NCC(=O)NCCCc2ccccc2)cc1[N+](=O)[O-] | inconclusive: 14.1 µM [inhibitor, partial curve]
43 | CN(C)/C=C\C(=C/C(=O)C(F)(F)F)Nc1ccccc1Oc1ccccc1 | inconclusive: 20 µM [inhibitor, partial curve]
